This note sets out measurements from the RNAGym collection of RNA variant scans (doi:10.1073/pnas.2313332121).

The labels stand for the following.
B1: TPR 5TU (parent)
chain: GGAUCUUCUCGAUCUAACAAAAAAGACAAAUCUGCCACAAAGCUUGAGAGCAUCUUCGGAUGCAGAGGCGGCAGCCUUCGGUGGCGCGAUAGCGCCAACGUUCUCAACUAUGACACGCAAAACGCGUGCUCCGUUGAAUGGAGUUUAUCAUG

This sample is rich in variants without activity. Bounds are passed on as bounds.

The data set covers variants of B1. Put plainly: polymerase ribozyme fitness, log enrichment relative to wild type (log ratio); higher = more active; in vitro selection for triplet polymerase activity. An outline of the steps:
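After PCR construction and transcription, each subunit's mutant library from a heterodimeric triplet polymerase ribozyme was annealed with a biotinylated primer, the partner subunit and triplets. Incubation was frozen, at −7 °C, and extended constructs were gel-excised, bound to streptavidin beads and amplified by RT-PCR, in one selection round done in triplicate. Fitness is the logarithm of a genotype's enrichment divided by that of the wild type, from inverse-variance-weighted replicate averages of Illumina-sequenced inputs and outputs. The base of the logarithm is 2, and genotypes needed ≥10 input reads and ≥1 read per output.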
Consider GGAUCUUCUCGAUCUAACAAAAAAGACAAAUCUGACACAAAGCUUGAGAGCAUCUUCGGAUGCAGAGGCGGCAGCAUUCCGUGGCUCGAUAGCGCCAACGUUCUCAACUAUGACACGCAAAACUCGUGCUCCGUUGAAUGGAGUUUAUCAUG [C35A C76A G80C G86U G124U], for which the “polymerase ribozyme fitness (log ratio)” value was not above -4.2. To GGAUCUUCUCGAUCUAACAAAAAAGACAAAUCUGACACAAAGCUUGAGCGCAUCUUCGGAUGCAGAGGCGGCAGCCCUCGGUGGCGCGAUAGCGCCAACGUUGUCAACUAUGACACGCAAAACGCGUGCUCCGUUGAAUGGAGUUAAUCAUG [C35A A49C U77C C103G U146A] belongs not above -4.2.

With GGAUCUUCUCGAUCUAACAAAAAAGACAAAUCUGACACAAAGCUUGAGAGCAUCUUUGGAUGCAGAGGCGGCAGCCUUCGGUGGCGCGAUAGGGCCAACGUUCUCAACUAUGACACGCAAAACGCGUGCUCCGAUGAAAGGAGUUUAUCAUG [C35A C57U C93G U134A U139A], the “polymerase ribozyme fitness (log ratio)” value is not above -4.2. To GGAUCUUCUCGAUCUAACAAAAAAGACAAAUCUGACACAAAGCUUGAGAGCAUCUUCGGAUGCAGAGGCGGCAGCAUUCGGUGGCGCGAUAGUGCCAACGUUCUCAACUAUGUCACGCAAAACGCGUGCGCCGUUGAAUGGAGUUUGUCAUG [C35A C76A C93U A113U U130G A147G] belongs not above -4.2; to GGAUCUUCUCGAUCUAACAAAAAAGACAAAUCUGACACAAAGCUUGAGAGCAUCUUCGGAUGCAGAGGCGGCAGCCUUCGGUGGCGCGAUAGCGUCAACGUUCUCAACUAUGACACGCACAACGAGUGCUCCGUUGAAUGGAGUUUAGCAUG [C35A C95U A120C C125A U148G], not above -4.2; to GGAUCUUCUCGAUCUAACAAAAAAGACAAAUCUGACACAAAGCUUGAGAGCAUCUUCGGAUGCAGAGGCGGCAGCCUUCGGUGGCGAGAUAGCGCCAACGUUCUCAACUAUGACACGCAAAACUCGUGCUCCGUUGAAUGGAGCUUAUCAUG [C35A C87A G124U U144C], not above -4.2. Turning to GGAUCUUCUCGAUCUAACAAAAAAGACAAAUCUGACACAAAGCUUGAGAGCAUCUUCGGAUGCAGAGGAGGCAGCCUUCGGUGGCGAGAUAGUGCCAACGUUCUCAACUAUGACACGCAAAACGCGUGCUACGUUGAAUGGAGUUUAUCAUG [C35A C69A C87A C93U C131A], the “polymerase ribozyme fitness (log ratio)” value was not above -4.2. With GGAUCUUCUCGAUCUAACAAAAAAGACAAAUCUGACACAAAGCUUGAGCGCAUCUUCGGGUGCAGAGGCGGCAGCCUUCGGUGGUGCGAUAGCGCCAACGUUCUCAACUAUGACACGCAAAACGGGUGCUCCGUUGAAUGGAGUUUAUCAUG [C35A A49C A60G C85U C125G], the “polymerase ribozyme fitness (log ratio)” value was not above -4.2. Consider GGAUCUUCUCGAUCUAACAAAAAAGACAAAUCUGACACAAAGGUUGAGAGCAUCUUCGGAUGCAGAGGCGGUAGCCUUCGGUGGCGCGAUAGCGCCAACGUUCUCAACUAUGACACGCAAAACGCGUGCUCCGUUGAAUGGCGUUUAUCAUG [C35A C43G C72U A142C], for which the “polymerase ribozyme fitness (log ratio)” value is not above -4.2. As for GGAUCUUCUCGAUCUAACAAAAAAGACAAAUCUGACACAAAGCUUGAGAGCAUCUUCGGAUGCAGAGGCGGCAGCUUUCGGUGGCGCGAUAGCGCCAACGUUCUCAACUAUGACACGCAAAACGCGUGCUCCGUUGAAUGGAGUUUAUCAUG [C35A C76U], the “polymerase ribozyme fitness (log ratio)” value was -3.95.

For the variant GGAUCUUCUCGAUCUAACAAAAAAGACAAAUCUGACACAAAGCUUGAGAGCAUCUUCGGAUGCAGAGGCGGCAGCGUUCGGUGGCGCGAUAGCGCCAACGUUCUCAACUAUGACACGCAAAACGCGUGCUCCGUUGAAUGGAGUUUAUCAUG [C35A C76G], the “polymerase ribozyme fitness (log ratio)” value is not above -4.2. For GGAUCUUCUCGAUCUAACAAAAAAGACAAAUCUGACACAAAGCUUGAGAGCAUCUUCGGAUGCAGAGGCGGCAGCCUUCGGUGGCGCGAUAGCGGCAACGUUCUCAACUAUGACACGCAAAACGCGUGCUCCGUUGAAUGGAGUUAAUCAUG [C35A C95G U146A], the “polymerase ribozyme fitness (log ratio)” value was not above -4.2. Regarding GGAUCUUCUCGAUCUAACAAAAAAGACAAAUCUGACACAAAGCUUGAGAGCAUCUUCGGAUGCAGAGGCGGCAGCCUUCGGUGGCGCGAUGGCGCCAACGUUCUCAACUAUGACACGCAAAACGCGUGCUCCGUUGAAUGGAGUUUAUCAUG [C35A A91G], the “polymerase ribozyme fitness (log ratio)” value is not above -4.2. For GGAUCUUCUCGAUCUAACAAAAAAGACAAAUCUGACACAAAGCUUGAGAGCAUCUUCGGCUGCAGAGGCGGCAGCCUUCGGUGGCGCGAGAGCGCAAACGUUCUCAAAUAUGACACGCAAAACGCGUGCUCCGGUGAAUGGAGUUUAUCAUG [C35A A60C U90G C96A C108A U134G], the “polymerase ribozyme fitness (log ratio)” value was not above -4.2. Regarding GGAUCUUCUCGAUCUAACAAAAAAGACAAAUCUGACACAAAGCUUGAGAGCAUCUUCGGAUGCAGAGGCGGCAGCCUUCGGUGGCGCGCUAGCGCAAACGUUCUCAACUAUGACAGGCAAAACGGGUGCUCCGUAGGAUGGAGUUUAUCAUG [C35A A89C C96A C116G C125G U135A A137G], the “polymerase ribozyme fitness (log ratio)” value was not above -4.2. In the case of GGAUCUUCUCGAUCUAACAAAAAAGACAAAUCUGACACAAAGCUUGAGAGCAUCUUCGGGUGCAGAGGCGGCAGCCUUCGGUGGCGCGAUAGCGCCAACGUUUUCAGCUAUGACACGCAAAACGCGUGCUCCGUUGAAUGGAGUUUAGCAUG [C35A A60G C103U A107G U148G], the “polymerase ribozyme fitness (log ratio)” value was not above -4.2.

Take GGAUCUUCUCGAUCUAACAAAAAAGACAAAUCUGACACAAAGCUUGAGAGCAUUUUCGGAUGCAGAGGCGGCAGCCUUCGGUGGCGCGAUAGCGCCAACGUUCUCAACUAUGACACGCAAAACGCGUGAUCCGUUGAAUGGAGUUUAUCAUG [C35A C54U C129A]: the “polymerase ribozyme fitness (log ratio)” value was not above -4.2. The figure for GGAUCUUCUCGAUCUAACAAAAAAGACAAAUCUGACACAAAGCUUGAGAGCAUCUUCGGAUGUAGAGACGGCAGCCUUCGGUGGCGCGAUCGCGCCAACGUUCUCAACUAUGACAGGCAAAACGCGUGCUCCGUUGAAUGGAGUUUAUCAUG [C35A C63U G68A A91C C116G] is not above -4.2; for GGAUCUUCUCGAUCUAACAAAAAAGACAAAUCUGACACAAAGCUUGAGAGCAUCUUCGGAUGUAGAGGCGGCAGCCUUCGGUGGCGUGAUAGCGCCAACGUUCUCAACUAUGACACGCAAAACGCUUGCGCCGUUGAAUGGAGUUUACCAUG [C35A C63U C87U G126U U130G U148C] it is not above -4.2.
